Laboratory results reported in PMC4336329 (PLoS ONE, 2015).
In all, about 310,000 compounds went through this assay and about 14,000 (4.5%) showed an effect of 50% or more. The effect is printed as a negative number. The list shows a part of the results. Where a SMILES comes first, the peptide text is derived from it. [ ]: non-standard residue; d: D form. pGlu = O=C1CC[CH](C(=O)O)N1

target: human ether-à-go-go-related gene (hERG) potassium channel (human, UniProt Q12809); experiment: primary screen, population patch clamp on CHO cells stably expressing hERG
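Also: peak tail current of the secondary pulse compared with the same well before compound.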

Chain of human ether-à-go-go-related gene (hERG) potassium channel (Q12809 whole entry, looked up): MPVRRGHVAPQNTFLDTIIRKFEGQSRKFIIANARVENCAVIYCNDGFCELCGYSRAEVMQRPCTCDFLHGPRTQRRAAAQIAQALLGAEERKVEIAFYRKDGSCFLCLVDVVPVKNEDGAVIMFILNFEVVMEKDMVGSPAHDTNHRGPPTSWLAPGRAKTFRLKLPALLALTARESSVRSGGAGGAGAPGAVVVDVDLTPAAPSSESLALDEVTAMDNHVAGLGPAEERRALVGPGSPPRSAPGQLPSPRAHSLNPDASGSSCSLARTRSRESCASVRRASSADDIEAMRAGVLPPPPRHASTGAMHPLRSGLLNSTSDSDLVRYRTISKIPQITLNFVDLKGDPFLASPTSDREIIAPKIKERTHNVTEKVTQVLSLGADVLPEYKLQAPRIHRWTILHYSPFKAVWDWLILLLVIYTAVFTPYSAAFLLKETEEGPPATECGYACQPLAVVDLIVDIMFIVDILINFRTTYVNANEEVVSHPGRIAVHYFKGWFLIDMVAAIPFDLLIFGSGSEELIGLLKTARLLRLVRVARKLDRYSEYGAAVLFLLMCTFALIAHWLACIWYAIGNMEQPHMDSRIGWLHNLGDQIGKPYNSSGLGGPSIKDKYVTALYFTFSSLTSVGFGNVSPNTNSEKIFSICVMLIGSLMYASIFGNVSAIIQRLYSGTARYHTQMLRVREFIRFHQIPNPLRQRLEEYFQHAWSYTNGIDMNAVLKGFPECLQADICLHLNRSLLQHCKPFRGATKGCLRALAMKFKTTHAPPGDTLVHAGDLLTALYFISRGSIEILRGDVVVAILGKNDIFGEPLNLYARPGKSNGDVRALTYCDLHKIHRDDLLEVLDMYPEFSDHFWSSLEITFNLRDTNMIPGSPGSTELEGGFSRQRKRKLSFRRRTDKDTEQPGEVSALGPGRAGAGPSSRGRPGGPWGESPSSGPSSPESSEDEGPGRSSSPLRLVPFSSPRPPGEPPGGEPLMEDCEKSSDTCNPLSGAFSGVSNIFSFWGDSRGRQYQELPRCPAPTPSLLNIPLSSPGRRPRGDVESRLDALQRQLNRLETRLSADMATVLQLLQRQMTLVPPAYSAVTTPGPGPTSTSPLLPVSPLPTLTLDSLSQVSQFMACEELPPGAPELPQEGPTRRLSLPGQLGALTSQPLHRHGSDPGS

SMILES	hERG current change (%, negative = inhibition) at 10uM
O=C1C2CCCN2C(c2cccc(Br)c2)N1c1ccc(F)cc1 (centres unmarked)	-21.9%
O=C(NC(=S)NNC(=O)[C@H]1C[C@@H]1c1ccccc1)c1cccc(F)c1	24.8%
CC(C)NC[C@H](O)c1ccc(O)c(O)c1.Cl	-4.26%
CCOC(=O)N1CCN(C(=O)CSc2nnc(COc3ccc(Cl)cc3)o2)CC1	-37.8%
NC(=O)CSc1nnc(-c2cccc(S(=O)(=O)N3CCOCC3)c2)n1C1CCCCCC1	-13.1%
CC(=O)c1cc(-c2ccc(F)cc2)n(CCC(=O)Nc2cc(C)[nH]n2)c1C	11.8%
CCC(Oc1ccc(Br)cc1)C(=O)N1CCN(c2ncccn2)CC1 (centres unmarked)	-16.3%
COc1ccc(-n2c(=S)[nH]c3cc(C(=O)NCCCN4CCCC4=O)ccc3c2=O)c(OC)c1	12.9%
CCN(CC)CC(=O)Nc1c(C)cc(C(C)(C)C)cc1C.Cl	-41.8%
COc1ccc(CC(=O)Nc2ccc(-c3nc4cc(C)ccc4o3)c(O)c2)cc1OC	7.1%
Cc1cccc(CNC(=O)c2ccccc2N)c1	-14.5%
CCOC(=O)c1c(NC(=O)c2ccoc2C)sc(C(=O)N(C)C)c1C	-2.62%
COc1ccc(C(=O)NCc2nnc(SCCOc3ccccc3)n2C)cc1	-15.5%
CC1(C)CC(=O)C=C(c2ccc3c(c2)OCO3)C1	-2.33%
CC1CCN(C(=O)c2[nH]cnc2C(=O)N[C@@H](Cc2ccccc2)C(=O)OC(C)(C)C)CC1	-10%
Cc1n[nH]c(C)c1CCN.Cl	12.9%
Cn1c(C(=O)NCCN2CCc3ccccc3C2)cc2c(=O)[nH]c3ccccc3c21	-21.3%
COc1ccc(NC(=O)CN(CC(=O)Nc2ccc(OC)cc2)C(C)(C)CO)cc1	13.8%
COc1ccc(CC(=O)NCc2cccs2)cc1OC	2.71%
O=C1CCCN1c1ccc(S(=O)(=O)N2CCCCC2)cc1	9.81%
Cc1cc(-c2ccc(C)c(S(=O)(=O)N3CC(=O)Nc4ccccc43)c2)on1	4.16%
COc1cc(OC)c(S(=O)(=O)NC(C)C)cc1S(=O)(=O)NC(C)C	2.64%
COc1ccc(CCNC(=O)CN2C(=O)CSc3ccc(S(=O)(=O)N4CCOCC4)cc32)cc1OC	-0.827%

SMILES	hERG current change (%, negative = inhibition) at 10uM
O=C(c1ccc(-c2ccc([N+](=O)[O-])cc2)o1)N1CCCCCCC1	-22.7%
CC(=O)Oc1ccc(C(=O)Nc2nnc(C)s2)cc1	-10.8%
O=C1NC(=Nc2ccccc2)SC1(CO)CO	5.16%
CCCn1ncc(CN2CCC(Cc3cccc(F)c3)(C(=O)OCC)CC2)c1C	-59.7%
O=S1(=O)CC(NCc2ccccc2)C(Nc2ccccc2)C1 (centres unmarked)	-21.2%
Cc1ccc(C(=O)NC2CCN(CC(=O)NC3CCC(C)CC3)CC2)cc1 (centres unmarked)	7.67%
COc1ccc(-c2cc(C(=O)N(C)Cc3ccc(OC)c(OC)c3OC)c3ccccc3n2)cc1OC	-5.07%
CC1CCCc2sc3nc(N4CCN(CCO)CC4)n4ncnc4c3c21 (centres unmarked)	-25.6%
CC(=O)Nc1ccc(C(=O)NNC(=O)c2ccccc2-n2cccc2)cc1	6.54%
COc1ccccc1N1CCN(c2nc(-c3ccccc3)cc(C(F)(F)F)n2)CC1	12.8%
Cc1sc2ncn(CC(=O)NCCCC(=O)Nc3ccc(C(C)C)cc3)c(=O)c2c1C	-3.44%
CCOC(=O)Cc1csc(NC(=O)CSc2nnc(-c3ccc(F)cc3)o2)n1	4.97%
CCc1cccc(C)c1NC(=O)CN(C)Cc1ccc(Br)cc1	12.4%
CC(NC(=O)c1cc(-c2ccncc2)nc2ccc(Br)cc12)C1CCCO1 (centres unmarked)	-8.65%
CC(N=C(NS(=O)(=O)c1ccc(Cl)cc1)c1ccccc1)C(=O)O (centres unmarked)	11%
O=C(CO/N=C/c1ccc(OC(F)F)cc1)NC1CCCCC1	-8.59%
Cc1cccc(NC(=O)CN2C(=O)N/C(=C/c3cc(C)n(-c4ccncc4)c3C)C2=O)c1	7.19%
O=S(=O)(Nc1ccc(-c2nnc(SCc3ccc(Cl)cc3)o2)cc1)c1ccccc1	17.8%
Cc1nn(Cc2ccc(Cl)cc2)c(C)c1NC(=O)CSc1n[nH]c(C)c1[N+](=O)[O-]	-14.9%
Cc1ccc(Cl)cc1N1CCN(Cc2cc(=O)n3ccsc3n2)CC1	-43%
CCN(c1ccc(OC)cc1)S(=O)(=O)c1nnc(NC(=O)C(C)C)s1	18.2%
CCOc1cc(CNCCN2CCOCC2)ccc1OCc1ccccc1Cl.Cl	-41.8%
CN(C)C(Cc1ccccc1)C(=O)c1c[nH]c2ccccc12.Cl (centres unmarked)	3.47%

SMILES	hERG current change (%, negative = inhibition) at 10uM
COc1cccc(/C=N/NC(=O)c2cc3c(OC)cccc3[nH]2)c1OC	21.2%
COc1ccc(O)c(CN2CCC(n3nccc3NC(=O)c3ccccc3Cl)CC2)c1	-40.6%
Cc1nn(C)c(Cl)c1/C=N/OC(=O)c1ccccc1	3.32%
CC(C)CC(NC(=O)C1CCC(=O)N1)C(=O)NC(CC(C)C)C(=O)N1CCCC1C(N)=O (centres unmarked) ([pGlu]LLP-NH2; configuration not given here)	19%
CC1CC(C)CN(S(=O)(=O)c2cccc3cccnc23)C1 (centres unmarked)	1.46%
Br.N=c1n(CC(=O)c2ccc(Br)s2)c2ccccc2n1Cc1ccccc1	-61.7%
Cc1cc(Cl)c(S(=O)(=O)Nc2cccc(O)c2)cc1OCC(N)=O	14.9%
N/C(=N\OC(=O)c1ccoc1)c1ccc(Br)cc1	3.25%
CCOC(=O)c1c(C)n(C)c2ccc(OCC(O)CN(CC)CC)cc12.Cl (centres unmarked)	2.9%
CN1/C(=C\P(=O)(N(C)C)N(C)C)C(C)(C)c2ccccc21	-6.64%
CN(C)CCNC(=O)C1CCCNC1=O (centres unmarked)	4.72%
COc1ccc(CCC(=O)NNC(=O)Nc2cccc(Cl)c2)cc1	6.87%
CC(NC(=O)Cn1cc2c(n1)CCCCC2)c1ccccc1 (centres unmarked)	1.69%
O=C(OCc1csc(-c2ccccc2)n1)c1ccc(O)cc1	6.2%
Fc1ccc(-c2cc(C(F)(F)C(F)F)[nH]n2)cc1	0.577%
CCCCC#Cc1ccc2c(c1)COc1c3ccccc3nn1-2	7.84%
O=C(NNC(=O)c1ccc([N+](=O)[O-])cc1)NC1CCCCC1	4.67%
Fc1ccc(/C=C\c2nccc3c2[nH]c2ccccc23)cc1	9.91%
Cc1nnc(SCCN2CCOCC2)n1C.O=C(O)C(=O)O	-4.35%
Cc1ccc(CNC(=O)C2CC(c3cc(C(F)(F)F)cc(C(F)(F)F)c3)=NO2)o1 (centres unmarked)	-12.1%
COc1ccccc1CN1CC(C(=O)NC2CCCCC2)CC1=O (centres unmarked)	6.2%
COc1ccc(NC(=O)NC(C)c2ccc3c(c2)OCO3)c(OC)c1 (centres unmarked)	19.1%
CC1=C(C(=O)Nc2ccc(C)cc2)C(c2cccs2)NC(=S)N1 (centres unmarked)	-5.14%

SMILES	hERG current change (%, negative = inhibition) at 10uM
CC(CCc1ccccc1)NC(=O)C1CC1 (centres unmarked)	9.46%
COc1ccc(S(=O)(=O)N[C@@H](CSCc2ccccc2)C(=O)O)cc1	11.3%
Cc1ccc(C(C(=O)NC2CCCCC2)N(Cc2ccccc2)C(=O)Cc2c[nH]c3ccccc23)o1 (centres unmarked)	-8.07%
Cc1cccc(NC(=O)c2ccc([N+](=O)[O-])o2)c1C	8.51%
CCOc1cc(/C=N/Nc2cc(C)nc(-n3nc(C)cc3C)n2)ccc1O	3.09%
CCCCNC(=O)c1ccc(NC(C)=O)c(Cl)c1	17.6%
Nc1ccc(-c2nc3cc(N)ccc3n2CCO)cc1	-2.75%
Cc1cnn(-c2cc(N/N=C/c3ccccc3)ncn2)c1	1.23%
Cc1ccc(C(=O)NC2CC(C)(C)NC(C)(C)C2)cc1S(=O)(=O)N1CCCCC1	-2.6%
CCCCNC(=O)CCn1nc(-c2ccccc2)c2ccccc2c1=O	-12.1%
CCOc1ccc(-c2nnc3ccc(SCC(=O)NCc4ccco4)nn23)cc1	-8.72%
CCCCS(=O)CC(COC)OC(=O)c1ccccc1 (centres unmarked)	2.46%
Clc1ccccc1-c1nc2nc3ccccc3nc2n1-c1ccc2c(c1)OCO2	-8.41%
O=c1[nH]c(=S)[nH]c2sc3c(c12)CCCCCC3	20.1%
N#Cc1ccc(-c2csc(NNC(=O)c3ccccc3)n2)cc1	0.0899%
COc1ccc(-c2ccc(CNCc3ccccn3)o2)cc1Cl.Cl	-7.77%
CC1CCN(S(=O)(=O)c2ccc(-c3nnc(SCc4cccnc4)o3)cc2)CC1	7.2%
Cc1cc(C)c(C#N)c(SCCN2CCOCC2)n1	11%
Cc1ccc(S(=O)(=O)N2CCCCC2)cc1C(=O)Nc1ccc(N2CCOCC2)cc1	3.62%
O=C(CSc1nc2ncc(Cl)cc2[nH]1)NC1CCS(=O)(=O)C1 (centres unmarked)	32.4%
